Positions count from the first letter of the chain named. This is one part of the list.

B1: AGUUUAA (DNA:RNA)
RNA: GGGAGACCGGAAUUCAGAUUGUCCAGUUUAAUUAAAUCCCGUCGUAGCCACCA
DNA 1: CAATCTGAATTCCGGTCTCCC
DNA 2: TGGTGGCTACGACGGGATT
B2: CCGGAAU (DNA:RNA)
RNA: B1 RNA with A25C, G26C, U27G, U28G, U29A, A31U
DNA 1: CAATCTGAATTCCGGTCTCCC
DNA 2: TGGTGGCTACGACGGGATT
B3: AAAUUUA (DNA:RNA)
RNA: B1 RNA with G26A, U27A, A30U
DNA 1: CAATCTGAATTCCGGTCTCCC
DNA 2: TGGTGGCTACGACGGGATT
B4: UUUUUCA (DNA:RNA)
RNA: B1 RNA with A25U, G26U, A30C
DNA 1: CAATCTGAATTCCGGTCTCCC
DNA 2: TGGTGGCTACGACGGGATT
B5: AAAGUAA (DNA:RNA)
RNA: B1 RNA with G26A, U27A, U28G
DNA 1: CAATCTGAATTCCGGTCTCCC
DNA 2: TGGTGGCTACGACGGGATT
B6: GAAUCUA (DNA:RNA)
RNA: B1 RNA with A25G, G26A, U27A, U29C, A30U
DNA 1: CAATCTGAATTCCGGTCTCCC
DNA 2: TGGTGGCTACGACGGGATT
B7: CUAAGGG (DNA:RNA)
RNA: GGGAGACCGGAAUUCAGAUUGUCCCUAAGGGUUAAAUCCCGUCGUAGCCACCA
DNA 1: CAATCTGAATTCCGGTCTCCC
DNA 2: TGGTGGCTACGACGGGATT
B8: AACGAGG (DNA:RNA)
RNA: B7 RNA with C25A, U26A, A27C, A28G, G29A
DNA 1: CAATCTGAATTCCGGTCTCCC
DNA 2: TGGTGGCTACGACGGGATT
B9: GCCAAAA (DNA:RNA)
RNA: B1 RNA with A25G, G26C, U27C, U28A, U29A
DNA 1: CAATCTGAATTCCGGTCTCCC
DNA 2: TGGTGGCTACGACGGGATT
B10: GUAAGAC (DNA:RNA)
RNA: B7 RNA with C25G, G30A, G31C
DNA 1: CAATCTGAATTCCGGTCTCCC
DNA 2: TGGTGGCTACGACGGGATT
B11: UGGAAGG (DNA:RNA)
RNA: B7 RNA with C25U, U26G, A27G, G29A
DNA 1: CAATCTGAATTCCGGTCTCCC
DNA 2: TGGTGGCTACGACGGGATT
B12: CUCGACU (DNA:RNA)
RNA: B7 RNA with A27C, A28G, G29A, G30C, G31U
DNA 1: CAATCTGAATTCCGGTCTCCC
DNA 2: TGGTGGCTACGACGGGATT
B13: GUAAUAG (DNA:RNA)
RNA: B7 RNA with C25G, G29U, G30A
DNA 1: CAATCTGAATTCCGGTCTCCC
DNA 2: TGGTGGCTACGACGGGATT
B14: GAGGUCC (DNA:RNA)
RNA: B1 RNA with A25G, G26A, U27G, U28G, A30C, A31C
DNA 1: CAATCTGAATTCCGGTCTCCC
DNA 2: TGGTGGCTACGACGGGATT
B15: GGCGACG (DNA:RNA)
RNA: B1 RNA with A25G, U27C, U28G, U29A, A30C, A31G
DNA 1: CAATCTGAATTCCGGTCTCCC
DNA 2: TGGTGGCTACGACGGGATT
B16: GGCACCU (DNA:RNA)
RNA: B1 RNA with A25G, U27C, U28A, U29C, A30C, A31U
DNA 1: CAATCTGAATTCCGGTCTCCC
DNA 2: TGGTGGCTACGACGGGATT
B17: UUCCCAC (DNA:RNA)
RNA: B1 RNA with A25U, G26U, U27C, U28C, U29C, A31C
DNA 1: CAATCTGAATTCCGGTCTCCC
DNA 2: TGGTGGCTACGACGGGATT
B18: GACUCUG (DNA:RNA)
RNA: B1 RNA with A25G, G26A, U27C, U29C, A30U, A31G
DNA 1: CAATCTGAATTCCGGTCTCCC
DNA 2: TGGTGGCTACGACGGGATT
B19: CGCGCAA (DNA:RNA)
RNA: B1 RNA with A25C, U27C, U28G, U29C
DNA 1: CAATCTGAATTCCGGTCTCCC
DNA 2: TGGTGGCTACGACGGGATT
B20: GCCCCUA (DNA:RNA)
RNA: B1 RNA with A25G, G26C, U27C, U28C, U29C, A30U
DNA 1: CAATCTGAATTCCGGTCTCCC
DNA 2: TGGTGGCTACGACGGGATT
B21: CAAUAUC (DNA:RNA)
RNA: B7 RNA with U26A, A28U, G29A, G30U, G31C
DNA 1: CAATCTGAATTCCGGTCTCCC
DNA 2: TGGTGGCTACGACGGGATT
B22: UAGUUAG (DNA:RNA)
RNA: B1 RNA with A25U, G26A, U27G, A31G
DNA 1: CAATCTGAATTCCGGTCTCCC
DNA 2: TGGTGGCTACGACGGGATT
B23: UGCACAC (DNA:RNA)
RNA: B1 RNA with A25U, U27C, U28A, U29C, A31C
DNA 1: CAATCTGAATTCCGGTCTCCC
DNA 2: TGGTGGCTACGACGGGATT
B24: GAGAUCA (DNA:RNA)
RNA: B1 RNA with A25G, G26A, U27G, U28A, A30C
DNA 1: CAATCTGAATTCCGGTCTCCC
DNA 2: TGGTGGCTACGACGGGATT
B25: GGGUAGC (DNA:RNA)
RNA: B1 RNA with A25G, U27G, U29A, A30G, A31C
DNA 1: CAATCTGAATTCCGGTCTCCC
DNA 2: TGGTGGCTACGACGGGATT
B26: AUAAAGA (DNA:RNA)
RNA: B7 RNA with C25A, G29A, G31A
DNA 1: CAATCTGAATTCCGGTCTCCC
DNA 2: TGGTGGCTACGACGGGATT
B27: GAUCACU (DNA:RNA)
RNA: B1 RNA with A25G, G26A, U28C, U29A, A30C, A31U
DNA 1: CAATCTGAATTCCGGTCTCCC
DNA 2: TGGTGGCTACGACGGGATT
B28: GACAAGU (DNA:RNA)
RNA: B7 RNA with C25G, U26A, A27C, G29A, G31U
DNA 1: CAATCTGAATTCCGGTCTCCC
DNA 2: TGGTGGCTACGACGGGATT
B29: UGACCGU (DNA:RNA)
RNA: B7 RNA with C25U, U26G, A28C, G29C, G31U
DNA 1: CAATCTGAATTCCGGTCTCCC
DNA 2: TGGTGGCTACGACGGGATT
B30: AUAUAUA (DNA:RNA)
RNA: B1 RNA with G26U, U27A, U29A, A30U
DNA 1: CAATCTGAATTCCGGTCTCCC
DNA 2: TGGTGGCTACGACGGGATT
B31: ACUUCUA (DNA:RNA)
RNA: B1 RNA with G26C, U29C, A30U
DNA 1: CAATCTGAATTCCGGTCTCCC
DNA 2: TGGTGGCTACGACGGGATT

In the test the target is T1, RBFOX1 RRM (Homo sapiens, UniProt Q9NWB1 109-208).
T1 sequence: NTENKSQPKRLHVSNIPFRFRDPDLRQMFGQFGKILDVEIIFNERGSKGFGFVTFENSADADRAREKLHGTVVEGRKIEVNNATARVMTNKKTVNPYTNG
In words: EMSA; HiTS-Eq, 1 nM pool, 10 min; buffer printed only for the single-RNA assays: 10 mM Tris pH 7.5, 150 mM NaCl, 3.4 mM EDTA, 0.001% NP-40, 30 C. Conditions: tags: His6 N-terminal (pET28a); label: 5' 32P. The procedure, abridged: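 Purified RbFox RRM, wild type or mutant, was incubated for 10 min in 50 µL with 1 nM of a 5′-radiolabelled RNA pool carrying 7 randomized nucleotides, whose flanks were annealed to DNA oligonucleotides, over a series of increasing protein concentrations. Unbound RNA was resolved on 8% native PAGE, cut out, reverse-transcribed, barcoded by PCR and sequenced on an Illumina HiSeq 2500. Relative association constants were derived from changes in read counts for each RNA species versus the control reaction and normalised to the cognate motif.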
In general terms: A gel shift assay detects complexes by their altered migration in electrophoresis.
Consider B1, for which the binding signal was 0.00307 KA relative to UGCAUGU. As to B2, the binding signal is 0.00762 KA relative to UGCAUGU. B3: the binding signal was 0.00154 KA relative to UGCAUGU.

Take B4: the binding signal is 0.0137 KA relative to UGCAUGU. Turning to B5, the binding signal is 0.002 KA relative to UGCAUGU. Turning to B6, the binding signal was 0.00419 KA relative to UGCAUGU. Consider B7, for which the binding signal is 0.00275 KA relative to UGCAUGU.

Take B8: the binding signal is 0.0062 KA relative to UGCAUGU.

For the molecule B9, the binding signal was 0.00277 KA relative to UGCAUGU. B10: the binding signal was 0.00626 KA relative to UGCAUGU.

For B11, the binding signal was 0.0195 KA relative to UGCAUGU. The result for B12 reads 0.00584 KA relative to UGCAUGU. On to B13, for which the binding signal is 0.0108 KA relative to UGCAUGU. Turning to B14, the binding signal is 0.0226 KA relative to UGCAUGU.

B15: the binding signal was 0.0103 KA relative to UGCAUGU. As to B16, the binding signal was 0.00569 KA relative to UGCAUGU. Turning to B17, the binding signal was 0.00624 KA relative to UGCAUGU. Turning to B18, the binding signal is 0.0187 KA relative to UGCAUGU. Take B19: the binding signal is 0.0078 KA relative to UGCAUGU. For the molecule B20, the binding signal is 0.00549 KA relative to UGCAUGU. Take B21: the binding signal was 0.000371 KA relative to UGCAUGU. As for B22, the binding signal is 0.0161 KA relative to UGCAUGU. As for B23, the binding signal is 0.0137 KA relative to UGCAUGU. With B24, the binding signal was 0.00685 KA relative to UGCAUGU. The result for B25 reads 0.0138 KA relative to UGCAUGU; that for B26, 0.00273 KA relative to UGCAUGU; that for B27, 0.0055 KA relative to UGCAUGU. As for B28, the binding signal was 0.0114 KA relative to UGCAUGU.

Regarding B29, the binding signal was 0.0185 KA relative to UGCAUGU.

As for B30, the binding signal is 0.00148 KA relative to UGCAUGU. As to B31, the binding signal was 0.00304 KA relative to UGCAUGU.

These data come from publication PMC9911399, “Two distinct binding modes provide the RNA-binding protein RbFox with extraordinary sequence specificity”.
